The values below come from publication PMC4081100.

Holding throughout (assay): universal protein binding microarray (PBM)
What all share (settings): transcription factors of Arabidopsis thaliana; high values mean tight binding; most listed sequences are background and not binding sites; double strand, one strand shown

Experiment [1] addresses T1, GST-ANAC092(1-176) (UniProt Q9FKA0).
T1 sequence: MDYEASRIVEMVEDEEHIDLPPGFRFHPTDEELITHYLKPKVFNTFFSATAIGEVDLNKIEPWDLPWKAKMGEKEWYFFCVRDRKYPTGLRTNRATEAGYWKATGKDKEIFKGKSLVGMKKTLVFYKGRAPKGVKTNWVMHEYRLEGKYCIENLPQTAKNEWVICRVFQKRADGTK

Experiment [2] concerns the target GST-NTL6(1-168) (UniProt Q9SCK6).
Experiment [3] has as its target T2, GST-ANAC019 NAC domain (UniProt Q9C932).
T2 sequence: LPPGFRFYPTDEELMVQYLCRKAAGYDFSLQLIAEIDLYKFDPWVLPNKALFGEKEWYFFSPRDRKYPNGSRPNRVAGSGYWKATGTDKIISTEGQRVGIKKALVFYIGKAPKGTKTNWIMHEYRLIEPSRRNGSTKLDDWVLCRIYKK

Experiment [4] concerns the target T3, GST-ANAC055(1-171) (UniProt Q9LDY8).
T3 sequence: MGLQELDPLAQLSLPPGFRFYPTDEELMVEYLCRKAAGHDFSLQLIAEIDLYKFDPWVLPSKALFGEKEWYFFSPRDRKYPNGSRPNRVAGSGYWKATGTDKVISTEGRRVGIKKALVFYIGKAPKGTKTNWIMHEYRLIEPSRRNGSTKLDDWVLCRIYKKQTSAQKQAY

The target in experiment [5] is T4, GST-ATAF1 NAC domain (UniProt Q39013).
T4 sequence: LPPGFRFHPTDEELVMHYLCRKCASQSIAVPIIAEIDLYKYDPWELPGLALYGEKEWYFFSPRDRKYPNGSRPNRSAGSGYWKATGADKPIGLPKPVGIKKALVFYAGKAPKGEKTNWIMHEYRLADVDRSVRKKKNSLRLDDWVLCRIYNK

The target of experiment [6] is T5, GST-ANAC092(1-285) full length (UniProt Q9FKA0).
T5 sequence: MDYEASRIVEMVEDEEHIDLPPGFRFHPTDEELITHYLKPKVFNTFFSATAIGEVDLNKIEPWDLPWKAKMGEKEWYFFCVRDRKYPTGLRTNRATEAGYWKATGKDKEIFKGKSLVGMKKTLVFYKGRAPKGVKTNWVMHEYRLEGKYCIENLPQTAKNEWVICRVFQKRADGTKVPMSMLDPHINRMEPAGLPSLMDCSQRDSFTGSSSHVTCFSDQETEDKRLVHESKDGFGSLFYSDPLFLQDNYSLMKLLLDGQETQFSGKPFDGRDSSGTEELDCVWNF

Experiment [7] deals with T6, GST-NST2(1-184) (UniProt Q9M274).
T6 sequence: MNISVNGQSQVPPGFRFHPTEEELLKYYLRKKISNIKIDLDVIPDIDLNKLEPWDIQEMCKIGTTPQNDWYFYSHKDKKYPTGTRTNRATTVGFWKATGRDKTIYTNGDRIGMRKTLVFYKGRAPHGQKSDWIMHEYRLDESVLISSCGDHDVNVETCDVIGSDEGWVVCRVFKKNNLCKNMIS

The target of experiment [8] is T7, GST-NTL8 NAC domain (UniProt Q9XIN7).
T7 sequence: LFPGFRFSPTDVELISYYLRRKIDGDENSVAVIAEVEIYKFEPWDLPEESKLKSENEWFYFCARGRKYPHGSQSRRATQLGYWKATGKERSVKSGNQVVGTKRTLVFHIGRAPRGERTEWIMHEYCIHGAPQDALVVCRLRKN

Experiment [9] concerns the target T8, GST-SND1(1-203) (UniProt Q9LPI7).
T8 sequence: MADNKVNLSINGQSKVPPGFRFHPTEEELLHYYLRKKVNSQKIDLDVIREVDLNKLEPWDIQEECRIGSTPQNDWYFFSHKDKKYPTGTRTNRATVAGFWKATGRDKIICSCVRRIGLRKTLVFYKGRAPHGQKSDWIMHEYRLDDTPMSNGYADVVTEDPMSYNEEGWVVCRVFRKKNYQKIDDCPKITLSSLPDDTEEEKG

Experiment [10] concerns the target T9, GST-VND3 NAC domain (UniProt Q9FH59).
T9 sequence: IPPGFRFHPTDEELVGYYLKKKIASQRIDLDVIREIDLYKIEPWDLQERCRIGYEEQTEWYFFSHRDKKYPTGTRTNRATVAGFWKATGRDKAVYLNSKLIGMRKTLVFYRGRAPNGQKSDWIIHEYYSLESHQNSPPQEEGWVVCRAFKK

Experiment [11] concerns the target T10, GST-VND7 NAC domain (UniProt Q9C8W9).
T10 sequence: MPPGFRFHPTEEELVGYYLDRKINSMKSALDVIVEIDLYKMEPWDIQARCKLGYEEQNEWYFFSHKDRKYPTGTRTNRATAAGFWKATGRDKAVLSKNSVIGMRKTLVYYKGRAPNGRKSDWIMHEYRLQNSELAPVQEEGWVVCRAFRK

In experiment [12] the target is T11, GST-VOZ2 (Arabidopsis thaliana) (UniProt Q9SLB9).
T11 sequence: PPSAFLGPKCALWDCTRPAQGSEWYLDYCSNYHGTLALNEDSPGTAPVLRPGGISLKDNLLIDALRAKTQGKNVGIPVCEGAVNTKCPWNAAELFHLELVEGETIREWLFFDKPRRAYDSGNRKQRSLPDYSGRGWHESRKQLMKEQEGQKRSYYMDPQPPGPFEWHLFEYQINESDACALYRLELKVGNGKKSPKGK

Experiment [13] has as its target T12, GST-NAP(1-166) (UniProt O49255).
T12 sequence: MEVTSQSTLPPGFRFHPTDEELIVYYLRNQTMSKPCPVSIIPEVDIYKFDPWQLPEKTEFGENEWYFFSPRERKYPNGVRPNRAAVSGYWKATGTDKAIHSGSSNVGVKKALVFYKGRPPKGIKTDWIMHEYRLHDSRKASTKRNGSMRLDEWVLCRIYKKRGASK

The list shows a part of the results, in another mix than the full data. For some assays here: At the low end of the ranking the order means little. The list shows a part of the results. For some assays here: Construct or isoform of the protein are uncertain.

Chain of UniProt Q9SCK6 (Q9SCK6 1-168): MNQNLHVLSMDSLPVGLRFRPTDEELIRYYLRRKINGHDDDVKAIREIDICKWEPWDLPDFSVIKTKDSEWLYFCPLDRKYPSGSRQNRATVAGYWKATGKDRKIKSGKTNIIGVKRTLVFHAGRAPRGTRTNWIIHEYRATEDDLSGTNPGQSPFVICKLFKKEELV

On to CAATTGAC, for which the binding signal in experiment [1] is -0.002 E-score; in experiment [2], -0.0864 E-score; in experiment [3], -0.154 E-score; in experiment [4], 0.0141 E-score; in experiment [5] it was 0.0271 E-score; in experiment [6] it was -0.0319 E-score. For the same sequence, the binding signal in [7] was -0.00276 E-score; in experiment [8] it was -0.0119 E-score; in experiment [9], -0.0443 E-score; in experiment [10], 0.0467 E-score; in experiment [11], -0.0518 E-score; in [12], -0.0181 E-score.
For the sequence GTCAAGAC, the binding signal in experiment [1] is -0.0651 E-score; in [2], 0.02 E-score; in experiment [3], 0.0215 E-score; in [4], -0.171 E-score; in experiment [5] it was -0.119 E-score; in experiment [13] it was -0.0136 E-score. The binding signal in experiment [7] is -0.0424 E-score; in [8], -0.0632 E-score; in [9], -0.0015 E-score; in [10], -0.058 E-score; in [11], -0.0692 E-score; in experiment [12] it was -0.0624 E-score.
For the sequence GGTCAGAA, the binding signal in [1] is -0.0236 E-score; in experiment [2], -0.11 E-score; in experiment [3], 0.0376 E-score; in [4], -0.171 E-score; in [5], -0.0116 E-score; in [6], -0.0844 E-score. Moreover, the binding signal in experiment [13] is -0.204 E-score; in experiment [7] it was -0.126 E-score; in [8], 0.0234 E-score; in experiment [9] it was -0.0821 E-score; in experiment [10], -0.0274 E-score; in [11], -0.0142 E-score. The same sequence came in with a binding signal in [12] of 0.000875 E-score.
As to CCATTGAC, the binding signal in [1] was -0.0305 E-score; in [2] it was -0.0477 E-score; in experiment [3], -0.0864 E-score; in experiment [4], -0.00537 E-score; in experiment [5] it was -0.079 E-score; in [6] it was -0.026 E-score. Also, the binding signal in experiment [13] is -3e-05 E-score; in experiment [7], -0.0589 E-score; in experiment [8], -0.156 E-score; in experiment [9], -0.0201 E-score; in [10], -0.0163 E-score; in experiment [11], -0.0723 E-score. In addition, the binding signal in experiment [12] was -0.0315 E-score.
With ACGGTCAA, the binding signal was -0.00836 E-score in [1]; -0.124 E-score in experiment [2]; -0.0598 E-score in experiment [3]; -0.0757 E-score in [4]; -0.173 E-score in experiment [5]; 0.00494 E-score in experiment [13]. In addition, the binding signal in experiment [7] is -0.0941 E-score; in experiment [8] it was -0.0031 E-score; in experiment [9] it was -0.0503 E-score; in experiment [10], -0.165 E-score; in experiment [11], -0.148 E-score; in experiment [12], -0.129 E-score.
On to CATGGTCA, for which the binding signal in [1] is -0.22 E-score; in experiment [2], -0.0349 E-score; in [3], -0.112 E-score; in experiment [4] it was -0.113 E-score; in experiment [5], -0.131 E-score; in experiment [6] it was -0.152 E-score. Further, the binding signal in [13] was -0.0346 E-score; in experiment [7], -0.155 E-score; in experiment [8] it was -0.0503 E-score; in experiment [9], -0.178 E-score; in [10], 0.0588 E-score; in [11], -0.0871 E-score. This sequence returned a binding signal in experiment [12] of -0.0393 E-score.
In the case of TCGTCAAA, the binding signal in experiment [1] is -0.0638 E-score; in experiment [2], 0.0382 E-score; in experiment [3] it was 0.0342 E-score; in experiment [4], 0.0878 E-score; in [5] it was 0.0946 E-score; in experiment [6], -0.00687 E-score. Also, the binding signal in experiment [13] is -0.0206 E-score; in experiment [7] it was 0.0744 E-score; in experiment [8], -0.0352 E-score; in experiment [9], 0.0486 E-score; in [10], 0.00649 E-score; in [11] it was -0.0877 E-score. For the same sequence, the binding signal in [12] worked out at 0.16 E-score.
On to AGGGTCAG, for which the binding signal is -0.106 E-score in [1]; -0.113 E-score in experiment [2]; -0.103 E-score in experiment [3]; -0.252 E-score in experiment [4]; -0.203 E-score in experiment [5]; -0.13 E-score in experiment [6]. For the same sequence, the binding signal in experiment [13] is -0.0956 E-score; in experiment [7], -0.151 E-score; in experiment [8] it was -0.0281 E-score; in experiment [9] it was -0.0415 E-score; in experiment [10], -0.151 E-score; in experiment [11] it was -0.191 E-score. The binding signal in experiment [12] was -0.0594 E-score.
As for CTGGGTCA, the binding signal in [1] was -0.0156 E-score; in experiment [2] it was -0.15 E-score; in [3] it was 0.00458 E-score; in [4] it was -0.157 E-score; in experiment [5], -0.092 E-score; in experiment [13], -0.142 E-score. Besides, the binding signal in experiment [7] was -0.0783 E-score; in experiment [8], 0.00064 E-score; in experiment [9], -0.111 E-score; in experiment [10] it was 0.0231 E-score; in experiment [11], 0.00884 E-score; in experiment [12] it was -0.0895 E-score.
